Measured values from PMC4336329 (PLoS ONE, 2015).
The campaign covered roughly 310,000 compounds. About 2,200 (0.71%) showed an effect of 50% or more. Effects have a minus sign here. This is one part of the list.

Molecular target: human ether-à-go-go-related gene (hERG) potassium channel (human, UniProt Q12809)
Assay: primary screen, population patch clamp on CHO cells stably expressing hERG

Sequence of human ether-à-go-go-related gene (hERG) potassium channel (Q12809 whole entry, looked up): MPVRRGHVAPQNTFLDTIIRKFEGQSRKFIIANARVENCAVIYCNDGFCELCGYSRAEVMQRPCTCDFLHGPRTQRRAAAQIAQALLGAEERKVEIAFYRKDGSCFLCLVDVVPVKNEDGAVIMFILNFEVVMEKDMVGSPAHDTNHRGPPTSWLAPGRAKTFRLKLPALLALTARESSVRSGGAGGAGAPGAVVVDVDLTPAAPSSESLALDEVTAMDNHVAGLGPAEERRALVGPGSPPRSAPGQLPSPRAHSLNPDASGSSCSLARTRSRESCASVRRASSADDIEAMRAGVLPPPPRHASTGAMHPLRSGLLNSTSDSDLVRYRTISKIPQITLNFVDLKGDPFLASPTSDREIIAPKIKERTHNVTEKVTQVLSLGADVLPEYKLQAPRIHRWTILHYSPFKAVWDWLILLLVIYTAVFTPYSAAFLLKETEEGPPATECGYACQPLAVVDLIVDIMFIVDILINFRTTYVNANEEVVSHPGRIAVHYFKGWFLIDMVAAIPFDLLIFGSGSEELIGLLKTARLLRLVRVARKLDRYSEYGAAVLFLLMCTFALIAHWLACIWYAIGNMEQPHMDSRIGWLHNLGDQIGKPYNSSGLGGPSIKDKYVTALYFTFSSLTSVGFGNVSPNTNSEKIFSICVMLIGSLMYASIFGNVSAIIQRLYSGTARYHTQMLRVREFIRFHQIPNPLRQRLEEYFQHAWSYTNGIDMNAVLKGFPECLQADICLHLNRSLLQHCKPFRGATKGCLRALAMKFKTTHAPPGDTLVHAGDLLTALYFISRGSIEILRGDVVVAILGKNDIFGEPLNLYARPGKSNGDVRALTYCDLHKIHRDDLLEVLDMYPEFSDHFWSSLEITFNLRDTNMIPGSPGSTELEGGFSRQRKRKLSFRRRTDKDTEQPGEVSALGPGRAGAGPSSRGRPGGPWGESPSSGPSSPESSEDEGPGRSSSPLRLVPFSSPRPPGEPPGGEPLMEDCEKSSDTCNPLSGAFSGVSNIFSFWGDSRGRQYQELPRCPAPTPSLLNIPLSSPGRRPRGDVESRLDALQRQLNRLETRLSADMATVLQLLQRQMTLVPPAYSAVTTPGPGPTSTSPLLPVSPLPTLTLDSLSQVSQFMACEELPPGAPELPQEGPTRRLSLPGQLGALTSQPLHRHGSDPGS

Row | Compound | hERG current change (%, negative = inhibition) at 1uM [%]
1 | CCOCCSc1n[nH]c(=O)n1CCc1ccccc1 | 12.3
2 | COc1ccc(C)cc1NC(=O)CN1CCN(c2ccccc2F)CC1 | 1.69
3 | O=[N+]([O-])c1cccc2ccc(N3CCOCC3)nc12 | 9.39
4 | C=C(C)C(=O)Nc1ccc(OC(F)(F)C(F)F)c(NC(=O)C(=C)C)c1 | 11.4
5 | Cn1nccc1C(=O)N1CCN(S(=O)(=O)c2ccc(Br)s2)CC1 | 16.6
6 | N#Cc1nc(-c2ccco2)oc1NCc1cccnc1 | -2.68
7 | COc1ccc(CCNS(=O)(=O)c2ccc3c(c2)CCN3C(=O)C2CC2)cc1OC | 6.72
8 | COc1ccc(S(=O)(=O)Nc2ccc3ccccc3c2)cc1C | -1.72
9 | Fc1ccccc1CSc1nnc(-c2cccs2)o1 | -1.02
10 | COC(=O)c1cc(CC(=O)c2ccc(O)cc2O)c(C)o1 | 13.5
11 | CCn1nc(C)cc1C(=O)N1CCc2c([nH]c3ccccc23)C1c1cc(F)ccc1F (stereo not shown) | 13.5
12 | COC(=O)c1c(C)[nH]c(C(=O)COC(=O)c2c(C)noc2C)c1C | 14.6
13 | Cc1ccc(S(=O)(=O)c2ncccc2[N+](=O)[O-])cc1 | -2.76
14 | COc1ccc(Nc2nc(C)cc(C)c2C#N)cc1 | 9.8
15 | CNC(=S)N1N=C(c2ccc(C)cc2)CC1c1cc(OC)ccc1OC (stereo not shown) | 11.6
16 | Cc1cc(=O)[nH]c(SCCCOc2ccc(F)cc2)n1 | 0.957
17 | CN1C(=O)C2(NCCc3c2[nH]c2ccccc32)c2ccccc21 (stereo not shown) | 14.5
18 | COc1ccccc1-n1nc(C)c(-c2ccccc2)c1N | 6.76
19 | O=c1c(Sc2ccccc2)c(C(F)(F)F)[nH]n1-c1ccccc1 | 19.8
20 | COc1ccc(-n2c(=O)cc(N3CCc4ccccc43)[nH]c2=O)cc1 | 8.59
21 | O=C(NC(=S)Nc1cccnc1Cl)c1ccc(F)cc1 | 11.5
22 | COc1ccccc1NC(=S)NC(=O)CCc1ccccc1 | 1.35
23 | N=C1C(c2ccccc2)=C(O)CN1NC(=O)c1ccc(Cl)cc1 | 12

Row | Compound | hERG current change (%, negative = inhibition) at 1uM [%]
24 | CN(C)C(=O)Oc1ccc(Cl)c2ccccc12 | 8.36
25 | O=C(N/N=C/c1ccncc1)C12CC3CC(CC(C3)C1)C2 | 7.3
26 | COc1cc(-c2noc(CCCC(=O)NC3CCCCC3)n2)cc(OC)c1OC | -3.68
27 | O=C(NNC(=O)c1cc(-c2ccccc2Cl)nc2ccccc12)c1csc(N2CCOCC2)n1 | 3.93
28 | Cn1cc(Cl)cc(C(=O)Nc2ccccc2)c1=O | 10.5
29 | Cc1nc2c(C(=O)NCc3cccs3)cnn2c(C)c1Cc1ccccc1 | 16.2
30 | Cl.OC(COCc1ccc2c(c1)OCO2)CN1CCC(Cc2ccccc2)CC1 (stereo not shown) | -79.4
31 | COc1ccc(C)cc1NC(=S)NN1CCN(C)CC1 | 22.7
32 | Nc1nc(-c2ccccc2)c(N=Nc2cccnc2)s1 | 17.7
33 | Cc1cc(C)n(/N=C/c2cccc(O)c2)c(=O)c1C(N)=O | 7.25
34 | COc1cc(CC(=O)OCC(=O)NC2CCCCC2C)cc(OC)c1OC (stereo not shown) | 3.45
35 | CCC1=C(C)CN(C(=O)NCCc2ccc(S(=O)(=O)NC(=O)NC3CCC(C)CC3)cc2)C1=O (stereo not shown) | 1.24
36 | O=C(NC(=S)NCc1ccco1)c1ccc(Br)cc1 | 10.9
37 | O=C(Nn1cnnc1)C(Sc1ccccc1)c1ccccc1 (stereo not shown) | 15
38 | COc1cc(/C=C2/C(=O)N(c3ccc(C)c(C)c3)N=C2C)cc([N+](=O)[O-])c1O | 12.5
39 | O=C(Oc1ccc(F)cc1C(=O)/C=C/c1cccs1)c1cccc([N+](=O)[O-])c1 | 10.1
40 | COc1ccc(-c2cncnc2-c2ccc(OC)cc2O)cc1 | 11.2
41 | COc1ccc(-c2ccc(SCC(=O)N3c4ccccc4CC3C)nn2)cc1OC (stereo not shown) | -5.58
42 | COC(=O)c1ccc(NS(=O)(=O)c2cc3c4c(c2)C(C)C(=O)N4CCC3)cc1 (stereo not shown) | 2.47
43 | COc1ccc(CSCCc2n[nH]c(=S)n2-c2ccccc2)cc1 | 8.77
44 | CC(NC1=NCCS1)c1ccccc1 (stereo not shown) | 11.3
45 | Cc1[nH]n(-c2ccccc2)c(=O)c1N=Nc1cccc(S(=O)(=O)N2CCOCC2)c1 | 3.31
46 | CCCc1ccc(C(=O)NNC(=O)c2ccc(Br)cc2)cc1 | 11.6
